# From ChEMBL document CHEMBL4888484, “Replenishing the malaria drug discovery pipeline: Screening and hit evaluation of the MMV Hit Generation Library 1 (HGL1) against asexual blood stage Plasmodium falciparum ,using a nano luciferase reporter read-out” (2022)
# The campaign covered roughly 150,000 compounds. About 540 (0.36%) showed an effect of 50% or more. The list shows a part of the results.
# System: Plasmodium falciparum
# Assay: Primary screen in NF54 nanoGlo assay, in single point, at 2uM, 72h; a lower Z score goes with more inhibition
# Assay type: functional, Erythrocyte
# Settings: timepoint 72 hour
Compound,% Inhibition [%],Z score
C/C=C\Cn1c(C(=O)N2CCN(Cc3ccccc3)CC2)cc2c(OCC)cccc21,-6,0.71
O=C(COc1ccc2ccccc2c1)N1C[C@@H](CN2CCCCC2)[C@@H](CO)C1,-4,0.79
NC(=NC[C@@H](c1ccc(Cl)cc1)n1cccn1)N1CCOCC1,-5,0.52
Cn1nc(C2CCCCC2)c(C(N)=O)c1N,21,-2.65
O=C(Nc1ccc(Oc2ccncc2)c(Cl)c1)c1cc[nH]c(=O)c1,-11,1.03
COc1cc2c(cc1OC)[C@H](CNC(=O)c1ccc(C)cc1)N(Cc1ccccc1F)CC2,-5,0.58
COc1cc(OC)c(NC(=O)c2cnc(N(C)C)nc2)cc1Cl,7,-1.28
CC(=O)N[C@H]1[C@H](c2ccccc2)N(Cc2cccnc2)CC[C@@]1(C)O,-11,1.41
O=C1CN(c2ccc(CNC(=O)c3cnccn3)cc2)CCN1,2,-0.25
Cc1cc(C)n(CCN(C)CC(=O)NC[C@H]2CCCO2)n1,-9,1.4
Cc1cccn2cc(COc3ccccc3C(=O)NCc3c[nH]nn3)nc12,-12,1.81
CCc1cc(CC(=O)NC[C@H]2CCC3(CCCCC3)O2)n(C)n1,-10,1.34
CCn1ccnc1CNc1nc(C)cc(C)n1,-3,0.59
O=C(Cc1ccc(Cl)c(Cl)c1)N1CCC[C@H]1c1nnc2ccccn12,-8,1.37
CC(=O)N(CCN1CCCCC1)[C@H]1CCCN(C(=O)CC(C)C)C1,8,-1.01
CC(C)(C)OC(=O)N1CCC([C@H]2OCC[C@@H]2NC(=O)CC#N)CC1,4,-0.65
COC[C@@]12CN(C(C)=O)CC[C@@H]1CN(S(=O)(=O)c1cc(OC)ccc1OC)C2,-10,1.45
N#Cc1ncn(CC(=O)N2CCCc3ccccc32)c1C#N,-5,0.65
CCc1ncc(CNC(=O)c2ccc3c(c2)[C@@H](C)CO3)o1,2,-0.37
CC1CC(NS(C)(=O)=O)C(=O)N1c1ccccc1 (centres undefined),9,-1.78
Cc1ccc(-c2ncc(C(=O)N[C@H]3CCc4[nH]ncc4C3)c(O)n2)cc1,-4,0.56
Cc1ccc(C(=O)N2CCc3n[nH]cc3C2)n1C(F)F,4,-0.73

Compound,% Inhibition [%],Z score
FC(F)(F)[C@@H]1CN(c2noc(-c3ccccc3)n2)CCO1,-6,0.66
Cc1nc(C(=O)Nc2nc3c(s2)C(=O)NCCC3)cs1,-15,2.93
COc1ccc([C@H](C)NCC(=O)N2CCCCCC2)c(OC)c1,-4,0.72
c1ccc(-c2noc(-c3cncnc3NC3CCCCC3)n2)cc1,-4,0.64
CC(=O)Nc1ccc(C)cc1NCc1nccn1CC(F)(F)F,-5,0.68
CC(C)(C)c1ccc(-c2ccc(C(=O)NCC3(O)CCOCC3)o2)cc1,35,-0.59
CS(=O)(=O)N(CC(F)(F)F)C1CCN(Cc2ccccc2C2CC2)CC1,6,-0.86
Cc1ccc(C)c(C2CCN(C(=O)CS(=O)(=O)C(C)C)CC2)c1,-1,0.12
CCn1nccc1-c1ccc(CN2CCN(C)CC2)cn1,1,-0.14
COc1cc(NC(=O)COc2ccccc2C)ncn1,-8,1.55
Cc1ccc(CNC(=O)CCn2cncn2)s1,-7,0.59
CC(=O)c1cccc(CN2CCC(CCC(=O)Nc3ccccc3Cl)CC2)c1,-8,1.34
CN1c2ccc(NC(=O)c3ccncc3F)cc2N(C)S1(=O)=O,-2,0.47
O=C(Nc1nc2ccccc2[nH]1)c1cccs1,-1,0.15
Cc1ccc(-c2nnc(NC(=O)c3c(C)nn(C)c3C)[nH]2)o1,-13,1.51
Cc1ccnc(CC(=O)NC(C)(C)CN2CCOCC2)c1,-8,1.25
COC[C@H](NC(=O)N(C)Cc1cc(F)c(F)c(F)c1)C1CC1,-17,1.48
O=S(=O)(c1ccc(-c2noc(-c3ccccn3)n2)cc1)N1CCOCC1,-3,0.56
CNc1ncc(-c2cc(C)co2)nc1C,-9,0.93
CCCc1cc(N2CCC(Cc3ccccc3)CC2)n2nc(C)c(-c3ccccc3)c2n1,-1,0.21
CN(C(=O)N1CC2(CCOC2)C1)C1CCCCC1,-6,1.09
O=C(NCc1ccccn1)C1=COCCO1,0,-0.02

Compound,% Inhibition [%],Z score
O=C(CC[C@H]1CCCO1)Nc1nc2ccccc2s1,-6,1.25
Cc1c([C@H](C)NC(=O)c2ccc[nH]2)cnn1-c1cccc2ccccc12,-9,1.04
CC(=O)N1CCC(c2nc(CCc3ccccc3)nn2-c2ccc(C)cc2)CC1,-9,1.84
c1cncc(-c2nnc(CN3CCCC[C@H]3c3nccs3)o2)c1,-12,1.61
CN(C)c1ccccc1N(C)CC[C@H]1CCOC1=O,0,-0.03
O=S(=O)(c1cccc(Br)c1)N1CCN(CCc2ccccn2)CC1,-10,1.31
COC(=O)C1CC(O)CN1Cc1cnn(Cc2ccccc2)c1 (centres undefined),-10,1.36
Cc1cc(NS(=O)(=O)c2cnccc2C)n(C)n1,-10,0.82
COc1nsc(OC)c1C(=O)NCCOCC(F)(F)F,5,-0.78
COC1(C)CN(c2nc(C)nc(C)c2F)C1,-4,0.74
Cc1c(-c2cc(-c3cnn(C)c3C)n(-c3cccc(Cl)c3)n2)cnn1C,33,-3.73
Cc1csc2nc(CNc3ccccc3-c3ccccc3)cc(=O)n12,10,-1.14
O=C(c1cc(-c2cc(NC3CCCC3)nc3[nH]ccc23)c[nH]1)N1CCOCC1,2,-0.25
CN(C)CCCNCc1ccccc1F,31,-4.15
CCC[C@H](C)NS(=O)(=O)c1c(C2OCCO2)cnn1C,10,-1.85
Cc1cc(=O)c2cccc(C(=O)N3CCNC(=O)[C@@H]3CCO)c2[nH]1,-3,0.48
COC(=O)c1cc(OCC(=O)NC2CCCCC2)c2cc(F)ccc2n1,-11,1.82
CC(C)(O)CCc1ccc(C(=O)N2C[C@@H]3[C@H](C2)[C@H]2CC[C@@H]3O2)cc1,10,-1.35
Cc1noc(C2CCCN(C(=O)C3CC3c3ccccc3F)C2)n1 (centres undefined),0,-0.01
C=CCc1c(NC(C)=O)cccc1OC,-38,4.5
COc1ccc(-c2nn3c(N4CCN(CC=Cc5ccccc5)CC4)cc(C)nc3c2C)cc1OC,72,-3.65
Cc1cc2c(cc1S(=O)(=O)N1CCOCC1)Oc1ncccc1C(=O)N2,-8,1.17

Compound,% Inhibition [%],Z score
C[C@H](NC(=O)Cc1cc(-c2ccco2)on1)c1ccccc1,-16,1.91
Cc1cnn(C2CCCC2)c1NC(=O)NCCc1ncnn1C,1,-0.26
Cc1ccc(C(=O)NC(C(=O)N(C)C)=C(Nc2ccccc2)Nc2ccccc2)cc1,-3,0.62
CC1CCC(COC(=O)c2ccc3nccnc3c2)O1 (centres undefined),-6,1.11
CCCCNC(=O)c1cncc(N(C)S(=O)(=O)c2ccc(C)cc2)c1,-10,1.89
Cc1ccc(-c2nccc(Oc3cccc(C(=O)Nc4ccc(Br)cc4)c3)n2)cc1,-2,0.31
CCC[C@H](C)NC(=O)COC(=O)c1nccnc1N,-5,0.98
CCc1ccc([C@@H]2CC(=O)Nc3c2c(C)nn3-c2nc(C)cc(C)n2)s1,-13,1.89
COC(=O)c1ccc2c(c1)N(C(=O)c1cc(C)ncn1)CCC2,-13,1.32
Cc1nc(CNCC2(CC(C)C)CCC2)n(C)c1C,5,-0.78
CCc1nc2ccccc2c(=O)n1NC(=O)c1c(O)nc2ccccc2c1O,-19,2.88
NC(=O)N1CCC(N[C@H]2CCCCc3ccc(Cl)cc32)CC1,3,-0.46
COCCOc1ncccc1CNCc1ccc2cn[nH]c2c1,-37,4.36
Cc1cc(O)c2cc(C(=O)NCc3cccnc3)ccc2n1,6,-0.73
Cc1nc(C)c(C(=O)N[C@@H]2C[C@H]3OCC[C@@H]23)o1,-12,1.85
CCc1cc(NC(=O)c2ocnc2C2CC2)n(C)n1,-8,1.52
O=C1[C@H]2CN(Cc3cccc(F)c3)C[C@H]2C(=O)N1Cc1ccc2c(c1)OCO2,-4,0.51
COc1ccc(OC)c([C@H](C)NC(C)=O)c1,-5,0.73
O=C(Nc1ccc(C(F)(F)F)cc1)N1CCc2nc(Cc3cccc(F)c3)nc(N3CCOCC3)c2C1,2,-0.28
O=C(C[C@H]1COCCN1C(=O)N1CCc2ccccc21)c1ccco1,5,-0.58
CN(C)S(=O)(=O)Nc1ccccc1C(N)=O,-8,1.52
